# Data as given in PubChem BioAssay AID485281 (National Center for Advancing Translational Sciences (NCATS), 2010).
# The campaign covered roughly 350,000 compounds. About 260 (0.074%) were called active. The inconclusive results got no clear call from the source; some entries with a clear call stand among them for comparison. Calls come from the whole dose curve; as a rule, active = well fitted inhibition curve with a large enough effect; inconclusive = small, poorly fitted or top-dose-only effect; inactive = no such curve, though single readings can be large or run the other way. Where the call is inconclusive, the potency comes from a doubtful curve fit.
# Target: Ferritin light chain (Equus caballus) (UniProt P02791)
# Experiment: qHTS Assay for Identification of Novel General Anesthetics; note: nearly all actives have a fitted effect of over 20% in size
# Details: apoferritin/1-aminoanthracene competitive binding, fluorescence; activity change, negative = displacement: at 77.5 µM (top of the series)
# Method in brief: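 Read-out: endpoint 1-AMA fluorescence, excitation 380 nm and emission 535 nm, after compounds sit 10 min at room temperature with 10 uM horse-spleen apoferritin in 50% saturated 1-AMA/PBS. Values come from four-parameter Hill fits.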
# % is set by controls: 0 for no effect and ±100 for the full control effect; potency is the fitted concentration of half-maximal effect; tags give direction and shape of the fitted curve.
# UniProt P02791, sequence (P02791 whole entry, looked up): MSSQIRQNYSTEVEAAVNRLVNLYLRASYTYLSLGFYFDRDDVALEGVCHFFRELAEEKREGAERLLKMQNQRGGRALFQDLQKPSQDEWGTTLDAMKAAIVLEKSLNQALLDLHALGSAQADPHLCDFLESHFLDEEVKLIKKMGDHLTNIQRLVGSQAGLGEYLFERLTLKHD
Compound,"activity change, negative = displacement",Potency
COc1ccc(-c2oc3ccccc3c2C(=O)Oc2ccccc2)cc1,inactive: 25.1%,
COC(=O)c1cccc(NC(=O)NC23CC4CC(CC(C4)C2)C3)c1,,"inconclusive: 11.2 µM [inhibitor, single point]"
Cc1nn(-c2ccccc2)c2nc(-c3ccncc3)cc(C(=O)NCc3ccco3)c12,,"inconclusive: 50.1 µM [inhibitor, partial curve, poor fit]"
COc1cccc(NCCC(=O)c2cccc([N+](=O)[O-])c2)c1,,"inconclusive: 17.8 µM [inhibitor, partial curve]"
CCN(CC)S(=O)(=O)c1cc(OC)c(Cl)cc1Cl,,"inconclusive: 10 µM [inhibitor, partial curve]"
Nc1c(C(=O)NCc2cccs2)nnn1CC(=O)Nc1cccc(Cl)c1,,"inconclusive: 3.55 µM [inhibitor, full curve, poor fit]"
CC(C)(C)c1ccc(OCC(=O)NNC(=S)NC(=O)c2ccccc2[N+](=O)[O-])c(Br)c1,,"inconclusive: 22.4 µM [inhibitor, partial curve]"
Cc1ccc(OCC(=O)Nc2cccc(OCc3cc(=O)n4cccc(C)c4n3)c2)cc1C,inactive: -12.5%,
CCOC(=O)c1sc(NC(=S)NC(=O)CC(C)C)cc1C,,"inconclusive: 20 µM [inhibitor, partial curve]"
Cc1ccccc1CSCCNC(=O)CSCc1ccc([N+](=O)[O-])cc1,,"inconclusive: 25.1 µM [inhibitor, partial curve]"
Cc1cc(C)cc(NS(=O)(=O)c2ccc3[nH]cc(C(=O)NC4CCCCC4)c(=O)c3c2)c1,,"inconclusive: 8.91 µM [inhibitor, partial curve]"
CCCC1C(=O)Nc2ccccc2N1C(=O)c1ccc(C(C)(C)C)cc1 (configuration not stated),,"inconclusive: 7.94 µM [inhibitor, full curve, poor fit]"
O=[N+]([O-])c1cc(S(=O)(=O)N2CCCCC2)ccc1NCc1cccc(Cl)c1,,"inconclusive: 31.6 µM [inhibitor, partial curve, poor fit]"
Clc1ccc2ncc(-c3nnnn3-c3ccccc3)c(-c3ccccc3)c2c1,,"inconclusive: 8.91 µM [inhibitor, partial curve]"
O=C(Nc1ccccc1)c1nnsc1S(=O)c1ccc(Cl)cc1 (configuration not stated),,"inconclusive: 12.6 µM [inhibitor, partial curve]"
COc1cccc(-c2nnc(SCC(=O)N3CCC(C)CC3)o2)c1,,"inconclusive: 39.8 µM [inhibitor, partial curve]"
COc1ccc(C(=O)Oc2cccc3cccnc23)cc1[N+](=O)[O-],inactive: -21.2%,
O=C(OCc1ccccc1)c1cn(-c2ccccc2)nc1-c1ccncc1,,"inconclusive: 20 µM [inhibitor, partial curve]"
Cc1nnc(SCc2ccc(Cl)cc2)nc1/C=C/N(C)C,,"inconclusive: 35.5 µM [inhibitor, partial curve]"
[N-]=[N+]=NC1c2ccccc2C(=O)N1Cc1ccccc1 (configuration not stated),,"inconclusive: 17.8 µM [inhibitor, partial curve]"
COc1cccc(C(=O)CSc2nnnn2C2CCCCC2)c1,,"inconclusive: 31.6 µM [inhibitor, partial curve]"
CC(C(=O)NN=C(c1ccccc1)c1ccccc1)N1CCOCC1 (configuration not stated),,"inconclusive: 28.2 µM [inhibitor, partial curve]"
O=C(c1ccccc1)c1ccc2nc(-c3ccco3)c(-c3ccco3)nc2c1,,"inconclusive: 15.8 µM [inhibitor, partial curve]"

Compound,"activity change, negative = displacement",Potency
O=C1CCCc2ccccc2N1Cc1cccc(Cl)c1,,"inconclusive: 17.8 µM [inhibitor, partial curve]"
CC(C)(C)c1ccc(COn2c(=O)c(-c3ccco3)[n+]([O-])c3ccccc32)cc1,,"inconclusive: 14.1 µM [inhibitor, partial curve]"
O=C(Cn1c(=O)oc2ccccc21)NC(=O)NCc1ccccc1,,"inconclusive: 31.6 µM [inhibitor, single point]"
O=C(CN(Cc1ccccc1)S(=O)(=O)c1ccc(Br)cc1)NCC1CCCO1 (configuration not stated),inactive: -3.41%,
CCOc1ccc(CCNC(=O)C(C)N2C(=O)CC(C)(C)Sc3ccccc32)cc1 (configuration not stated),,"inconclusive: 20 µM [inhibitor, partial curve]"
CCc1ccc(C(=O)COC(=O)c2cccs2)cc1,,"inconclusive: 31.6 µM [inhibitor, partial curve]"
CCOC(=O)CSc1ccc(-c2nc3ccccc3[nH]2)cn1,,"inconclusive: 35.5 µM [inhibitor, single point]"
CC(C)(C)c1ccc(C(=O)NCc2cccnc2)cc1,,"inconclusive: 14.1 µM [inhibitor, single point]"
CCN(CC)C(=O)c1sc2c(c1C)c(=O)n(CCc1ccccc1)c(=O)n2Cc1ccc(F)cc1Cl,inactive: -3.26%,
CNC(=O)C1(C(F)(F)F)CC(CCCO)CCCO1 (configuration not stated),inactive: 0.584%,
O=C(Nc1ccc(O)cc1)c1ccc(NC(=O)C2CCCO2)cc1 (configuration not stated),inactive: -11.5%,
CC(C)Cn1c(SCC(=O)N2CC(=O)Nc3ccccc32)nc2ccccc21,,"inconclusive: 39.8 µM [inhibitor, partial curve]"
O=C(Nc1cc2nn(-c3ccccc3)nc2cc1Cl)c1ccco1,inactive: 4.93%,
COC(=O)C(Nc1ccccc1Cl)(c1cc(C)c(O)c(C)c1)C(F)(F)F (configuration not stated),,"inconclusive: 15.8 µM [inhibitor, partial curve]"
O=C(NC1CCCCC1)C1CC=CCC1C(=O)OCC(Cl)=C(Cl)Cl (configuration not stated),,"inconclusive: 39.8 µM [inhibitor, partial curve]"
C/C(=N\NC(=O)C1(C)CC1(Br)Br)c1cccc(NC(=O)c2ccc(C)o2)c1 (configuration not stated),,"inconclusive: 22.4 µM [inhibitor, partial curve]"
CC(C)(C)NC(=O)C1Cc2ccccc2CN1C(=O)Nc1cccc(Cl)c1 (configuration not stated),,"inconclusive: 28.2 µM [inhibitor, partial curve]"
COc1ccccc1NC(=O)CN1CCC(C(=O)c2ccc(F)cc2)CC1,,"inconclusive: 35.5 µM [inhibitor, partial curve]"
COc1ccc(-c2[nH]c(-c3ccc(C)cc3)nc2SCC(=O)NCc2ccco2)cc1OC,,"inconclusive: 3.55 µM [inhibitor, full curve, poor fit]"
Cc1ccc(-c2nc(CS(=O)CC(=O)NCCC(C)C)c(C)o2)cc1 (configuration not stated),,"inconclusive: 31.6 µM [inhibitor, single point]"
CCN1CCc2nc(N)sc2C1,inactive: -2.2%,
CC(=O)c1cccc(OCc2cc(C(=O)NCCC3=CCCCC3)no2)c1,,"inconclusive: 3.55 µM [inhibitor, partial curve]"
Cc1cc(C(=O)Cn2ncc(Cl)c(Cl)c2=O)c(C)n1CC(F)(F)F,,"inconclusive: 50.1 µM [inhibitor, single point]"

Compound,"activity change, negative = displacement",Potency
Cc1ccc(S(=O)(=O)NC(=O)N2CCC(C)CC2)cc1,,"inconclusive: 7.94 µM [inhibitor, full curve, poor fit]"
NCCNc1ccc2nnnn2n1,inactive: -0.0118%,
Cc1cccc(NC(=O)C2C3C=CC(C4CC34)C2C(=O)O)c1 (configuration not stated),,"inconclusive: 31.6 µM [inhibitor, single point]"
CC1(C)CC(=O)C(Sc2ccc(Br)cc2)=C(O)C1,inactive: -3.68%,
Cc1cccc2nc(-c3cccc(NC(=O)c4ccc(Cl)cc4)c3)cn12,inactive: 3.15%,
CCC1=NN(C(=O)c2ccc(Cl)cc2)C(O)(c2ccccc2)C1 (configuration not stated),inactive: -2.68%,
COc1ccc(Nc2nc(N)c([N+](=O)[O-])c(NCc3ccccc3)n2)cc1,,"inconclusive: 14.1 µM [inhibitor, partial curve]"
CCCN1C(=O)/C(=C/c2ccco2)SC1=Nc1ccc(OC)cc1,,"inconclusive: 8.91 µM [inhibitor, partial curve]"
O=C(Nc1ccc(Cl)cc1)OCc1cc(-c2ccccc2Cl)on1,,"inconclusive: 3.55 µM [inhibitor, single point]"
O=C(COC(=O)c1ccccn1)c1ccc(Br)cc1,,"inconclusive: 39.8 µM [inhibitor, partial curve]"
CC(C)c1c(C(=O)N/N=C/c2cccc(OCc3ccc(F)cc3)c2)nnn1-c1nonc1N,inactive: -16.2%,
COc1cc(CNCCO)cc(Cl)c1OCc1ccccc1Cl,,"inconclusive: 31.6 µM [inhibitor, partial curve]"
O=C(/C=C/c1ccccc1)N1CCC(Cc2ccccc2)CC1,,"inconclusive: 15.8 µM [inhibitor, partial curve]"
CN(C)CCNc1oc(COc2ccc(-c3ccccc3)cc2)nc1C#N,,"inconclusive: 22.4 µM [inhibitor, partial curve]"
CCCCn1cc(S(=O)(=O)c2ccc(CC)cc2)c(=O)c2cc(F)c(N3CCCC(C)C3)cc21 (configuration not stated),inactive: 53.5%,
Cn1c(=O)c(C(=O)COC(=O)c2cc(C(F)(F)F)nc3ccccc23)c(N)n(Cc2ccccc2)c1=O,,"inconclusive: 15.8 µM [inhibitor, partial curve]"
Cc1cccc(-c2ccc(C=Nc3c(C)n(C)n(-c4ccccc4)c3=O)o2)c1,,"inconclusive: 3.98 µM [inhibitor, full curve]"
O=C(/C=C/c1ccccc1Cl)c1cccnc1,,"inconclusive: 28.2 µM [inhibitor, partial curve, poor fit]"
O=C1NC2(NN1c1ccccc1)C1CC3CC(C1)CC2C3 (configuration not stated),,"inconclusive: 7.08 µM [inhibitor, full curve, poor fit]"
COc1ccc(C(=O)c2ccc(N3CCOCC3)c([N+](=O)[O-])c2)cc1,inactive: -6.04%,
COc1cccc(NC(=O)CCCn2c(=S)[nH]c3ccccc3c2=O)c1,,"inconclusive: 31.6 µM [inhibitor, single point]"
